Test results published in PubChem BioAssay AID757 (NMMLSC, 2007).
In all, about 190,000 compounds went through this assay and about 520 (0.27%) were called active. The inconclusive results got no clear call from the source; some entries with a clear call stand among them for comparison.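 The calls were made as follows: active = GTP binding activity at least 20 points away from the 100% control level, either lower or higher; inconclusive = compound flagged as likely green fluorescent, judged across all proteins; inactive = the rest.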

target: Ras-related C3 botulinum toxin substrate 1 (Homo sapiens) (UniProt P63000); test: wildtype Rac1 GTP binding modulators, primary screen, biochemical, GST-Rac1 beads, flow cytometry, multiplex (AID 757); conditions: fluorescent GTP binding, at 10 µM, actives lie on both sides, 0 = cold GTP competed, 100 = untreated

SMILES	GTP binding activity (% of control)
O=C(NCC1CCCO1)/C(=C\c1ccco1)NC(=O)c1ccc(Cl)cc1 (stereo unspecified)	inconclusive: 90%
N#Cc1c(-c2cccc(Br)c2)cc(-c2ccco2)[nH]c1=O	active: 75%
CC1(C)CC(=O)C=C(N=CC2=C(O)CC(C)(C)CC2=O)C1	inconclusive: 89%
C[C@@]1([C@@H](NC(=O)c2cccs2)c2ccc(-c3ccccc3)cc2)C[C@H]1C1CCCCC1	inactive: 106%
Clc1ccc(CSc2nnc(-c3ccc4c(c3)OCO4)o2)cc1	inconclusive: 99%
COc1ccc(-n2nnnc2SCC(=O)NC(=O)Nc2ccc3c(c2)OCCO3)cc1	inconclusive: 94%
Cc1ccc(CSc2nc3c(c(N(C)C)n2)CCCC3)cc1	inconclusive: 91%
COCCNC(=O)c1cc2cc(Cl)cc(Cl)c2oc1=O	inactive: 97%
COc1ccc(-c2nnc3sc(COc4ccc(C)cc4)nn23)cc1	inconclusive: 95%
Cc1ccc(/C=N\NC(=O)c2ccc(Cn3cc(Br)c([N+](=O)[O-])n3)o2)o1	inconclusive: 89%
CN(C)CCNC(=S)Nc1ccc(Br)cc1	inconclusive: 106%
Cc1cc(Cl)c(S(=O)(=O)N2CCN(c3cccc(C)c3C)CC2)cc1OCC(N)=O	inconclusive: 100%
O=C(CSc1ccccc1)Nc1ccc(C(=O)Nc2cccc(O)c2)cc1	active: 75%
Nc1cc(Cl)ccc1N1CCCCCC1	inactive: 98%
Cc1nc2cc(C(=O)NCc3ccc4c(c3)OCO4)ccc2n1-c1ccc(Br)cc1	inconclusive: 76%
Cc1ccc(NC(=O)/C=C/c2ccc3c(c2)OCO3)cc1S(=O)(=O)N1CCOCC1	inactive: 92%
O=C(c1ccc(COc2ccc(F)cc2)o1)n1cccn1	inconclusive: 96%
O=C(N/N=C/c1sc(N2CCCCC2)nc1-c1cccs1)C1CC1	inconclusive: 89%
COc1ccc(NC(=O)c2cccc(N3C(=O)NC4CC3(C)Oc3ccccc34)c2)cc1 (stereo unspecified)	inconclusive: 105%
CN(C)c1nnc(-c2ccc(Cl)cc2)o1	inconclusive: 102%
CCCc1n(CC)c2ccccc2[n+]1CC(O)COC1CCCCC1 (stereo unspecified)	inactive: 108%
O=C(N/N=C/c1cn(-c2cccs2)nc1-c1ccccc1)c1ccccc1Cl	inconclusive: 101%
CCOc1cc(/C=C2\SC(=O)N=C2N)ccc1O	active: 77%

SMILES	GTP binding activity (% of control)
COc1ccc(NC(=O)c2ccco2)cc1NC(=O)c1cccs1	inconclusive: 102%
O=[N+]([O-])c1cccc(C2NCC(c3ccccc3Cl)c3c2[nH]c2ccccc32)c1 (stereo unspecified)	inconclusive: 99%
Nc1nc(CN2CCN(c3ccccc3F)CC2)nc(N2CCCc3ccccc32)n1	inactive: 87%
CCc1ccc(C2=NN(CCC(=O)NCc3cccs3)C(=O)CC2)cc1	inactive: 102%
CCCCN1C(=O)/C(=C/C=C2\N(C)c3ccccc3C2(C)C)SC1=S	inconclusive: 155%
CC(C(=O)N1CCCCC1)N(C)CC(=O)Nc1ccc(Cl)cc1 (stereo unspecified)	inactive: 101%
COc1cccc(NC(=O)c2oc3ccc(S(=O)(=O)N4CCOCC4)cc3c2C)c1	inconclusive: 93%
Cc1cc(-n2c(SCc3ccccc3F)nc3n[nH]c(C)c3c2=N)ccc1Cl	inconclusive: 97%
COc1cc(N2CCCC2)c(OC)cc1/C=c1/sc2nc3ccccc3n2c1=O	inconclusive: 295%
O=C(CCn1c(=S)oc2ccccc21)Nc1cccc(O)c1	inactive: 102%
CCCCn1c(SCC(=O)c2ccccc2)nc2c1c(=O)[nH]c(=O)n2C	active: 33%
Cc1ccc(CNC(=O)C2=NNC(=O)CC2)cc1	inactive: 108%
Cc1ccc2c(c1)cc(C)c1nnc(SCC(=O)NCc3ccco3)n12	inconclusive: 93%
CCOc1ccc(-c2cc(N3C(=O)Nc4ccccc4N3O)n[nH]2)cc1	inactive: 94%
CC1CCCCN1CCn1c(=S)[nH]c2cc3c(cc2c1=O)OCO3 (stereo unspecified)	inconclusive: 92%
COc1ccc(/C=N/NC(=O)CCCC(=O)NC2CCCCC2)cc1	inconclusive: 105%
CCCc1nc2ccccc2c(=O)n1CC(=O)c1ccccc1	inactive: 102%
O=C(CSc1nccn1Cc1ccccc1)Nc1nccs1	inactive: 105%
O=C(O)CCN1C(=O)/C(=C\c2ccc(-c3nc4ccccc4s3)o2)SC1=S	active: 67%
O=C1Oc2ccccc2C(=O)/C1=C/N1CCN(c2ccccc2F)CC1	inconclusive: 93%
Cc1cc(C)n(CC(O)Cn2c3ccc(Cl)cc3c3cc(Cl)ccc32)c(=O)n1 (stereo unspecified)	inactive: 102%
CCOC(=O)CNC(=S)n1ncnc1N	inactive: 96%
O=c1c2ccccc2nc2c3ccccc3c(NCc3ccco3)nn12	active: 77%
